The other results are listed elsewhere or left out.
These sequences were tested on PfSIP2 AP2 domain 1 (GST-tagged) (assay: gcPBM binding intensity (ln(normalized median fluorescence intensity)); higher = stronger DNA binding).
Summary of the method: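 Binding intensity is the highest Masliner-normalised natural-log median intensity over replicate spots in either probe orientation. To obtain it, GST-tagged P. falciparum DNA-binding domains made in E. coli were incubated for 1 h on an Agilent 4 × 180k array of primer-extended double-stranded 36-bp intergenic genomic probes plus negative controls. Detection used Alexa488 anti-GST antibody with scanning at 488 nm.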

Sequence	gcPBM binding intensity (ln)
ATATGATAAATTATATGTACTTAAAATATATTATAA [XGTACX_site5904]	6.92
AAAAAAAAAAAAAAAAAAAAAAAAACAATGAATTTA [GTGCAC_negctrl_site698]	8.68
TTTTTCTATATTTTCTTTTATAAAATATATAATTTT [GTGCAC_negctrl_site345]	6.76
GTCATATATTATAATAGTACATAAATAATTGATGCC [XGTACX_site3567]	7.1
ATAGTTATTTTATAGCGTACACAATAAATATATAAA [XGTACX_site4445]	7.23
CACAGAAATAGAGATACACACACACCGATATTTATG [CACACA_site9313]	6.84
ATGTATTTATTATTTAGTACACATTATTTTCTTATA [XGTACX_site6365]	7.05
AAATTTTCTTTTAAGTGTACGAAATTTAGTATTTCA [XGTACX_site7819]	6.74
TAAACAGTATGCAACGCATGCGTTGTTATATATAAA [TGCATGCA_site232]	6.73
ATTTTTTTTTTTTTTTTTTTATTCTTAATTCATATA [CACACA_negctrl_site342]	6.66
TTTTTGTTTGTTCACGACTACATTATGTCATAAATG [CACACA_negctrl_site597]	7.07
TATATATAAATATATACACACATGAAAATAAATAAA [CACACA_site2514]	6.98
ATCTATGTTCCTTTTACACACATAATCTTTTTTTTA [CACACA_site5468]	7.35
ATATATATATATTATACACACAAAAATATTTTGTAT [CACACA_site266]	9.09
CGTGGGAGCAGACACACACACACACGCATATTTATA [CACACA_site6290]	6.85
ATGGACAAAAAATATATACACACGAGGAAACCAACA [CACACA_site3726]	7.2
TTTTGTTTTTACGAATACTTTTTTAATTTTATTTAT [TGCATGCA_negctrl_site395]	6.67
CATGCATACTACATCTGTACACATACATTATATTTA [XGTACX_site2495]	7.14
GTAAATTATATAACAAATAAAAATGTACATATATAT [CACACA_negctrl_site408]	7.4
TATACTTTATATATTTTGTATATATATTTTTTTTAT [TGCATGCA_negctrl_site530]	7
AATAAAAAGTAATAATAACGTATAATTTATTATACT [TGCATGCA_negctrl_site414]	6.68
TCTTGTTATTTAAATGCATGTTGATTTTAAAAAATT [TGCATGCA_site840]	7.18

Sequence	gcPBM binding intensity (ln)
ATATATATAGATTGTACACACATTTATGCATATATA [CACACA_site3222]	7.79
ATAACATTCTATGTTGCACACAAAGAGAAAAATTTA [CACACA_site9322]	6.94
ACGCAATATTAACAAGTGCATTATAACACATAACAT	8.22
TTTATAATTTATATCACACATATATCTGTAATAAAT [CACACA_site5048]	6.94
ATCTCTGTAAAGATCACACATATATTTTTGTTATAT [CACACA_site5094]	6.84
TATATATTATATATATGTACATATTGTTGTGTATAT [XGTACX_site767]	7.32
CATATATGTTATATTTAACACACATATAAGGTACAT [CACACA_site8105]	7.14
CAGCTCTTAAAAATTACACACATATACACATATATA [CACACA_site9073]	6.94
TTATTACACACATATGTGCACATATAAAAGTACACG [GTGCAC_site9581]	8.7
TTTCTAGTTACAAGAGTGCATAATATATAAAAATAA [GTGCAC_site9874]	9.76
TATAAATACAATTCACAAGAGATCATGTATCAAACC [CACACA_negctrl_site1219]	6.8
TATATATATATATATACACACATTTTTAATGATAAA [CACACA_site2695]	9.29
ATATAATAAATATGTTGTACTATAAAAAATAGCCAT [XGTACX_site4710]	7.01
ACTAATTACTATAAAACACACATATATATATATATA [CACACA_site2591]	9.68
TTAGTCGAATGATGTACACACATACAAAACATTTAT [CACACA_site6076]	7.06
AGAAAATATTTTGGTTGTACAGGCGATTTATATGTT [XGTACX_site7253]	7.15
AAAAAAAAAAAAAAAAAAAAAAAAAAAAGAAAAAAG [GTGCAC_negctrl_site583]	8.76
TTATATTTTCAGAATAGTACACATATATACATATAT [XGTACX_site2519]	7.08
AAAAATTCTTGGCGCACACACTTTAAAAATTAAAAA [CACACA_site4498]	7.32
GATCATTTAAAATAAGTAATATTTTTTTTACTTTTG [TGCATGCA_negctrl_site602]	6.64
TTATAAAAGAAAAAAAAAAAAAAAAAAAAAAAAAAA [CACACA_negctrl_site1006]	7.01
TTTAGCCAATTTTTAAAGTTTAAAAAAGAAAAAAGA [CACACA_negctrl_site118]	6.8
